# According to PubChem BioAssay AID1345083 (National Center for Advancing Translational Sciences (NCATS), 2018):
# The campaign covered roughly 94,000 compounds. About 6,200 (6.6%) were called active. Inconclusive results, whose numbers are uncertain, are shown with a selection of clear calls. The call rests on the fitted dose curve; in most records, active means well fitted inhibition curve with a large enough effect; inconclusive means small, poorly fitted or top-dose-only effect; inactive means flat fitted curve, though single readings scatter. Potencies of inconclusive entries are doubtful fits and often do not repeat.
# Assay: Cytotoxic Profiling in HEK 293 Cell Line of Diverse Libraries Using Quantitative High-Throughput Screening; further: nearly all actives have a fitted effect of over 60% in size
# Conditions: HEK 293 viability, ATP luminescence (CellTiter-Glo), 48-72 h; series mostly up to 115 µM
# Outline: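 Viability of HEK 293 cells, plated at 250 cells/well, was judged by cellular ATP after compound treatment for 48 or 72 hr. Luminescence was imaged 10 min after CellTiter-Glo addition at room temperature.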
# Potency means the concentration at half of the fitted maximal effect; tags describe the fitted curve by direction and shape.
row,SMILES,Potency
1,O=C1NC2(CCN(C(=O)c3cccnc3)CC2)Oc2ccccc21,inactive
2,COc1ccc(-c2noc(C(=O)O)c2[C@@H](C)NC(=O)c2cc(C)n(C)n2)cc1,inactive
3,CCCc1noc(-c2cn(C3CCN(C(=O)c4ccco4)CC3)nn2)n1,inactive
4,O=C(c1cc(-c2ccccc2)n[nH]1)N1CCCC(Cc2noc(-c3cnccn3)n2)C1 (centres undefined),inactive
5,CN(CC1CCOCC1)C(=O)c1ccccc1Cl,inactive
6,Cc1noc(C)c1CC(=O)N1CCCC(c2noc(COc3ccccc3F)n2)C1 (centres undefined),"inconclusive: 89.1 µM [inhibitor, single point]"
7,COc1ccccc1-c1cccc(CN2CCC(NC(=O)N(C)C)CC2)c1,active: 79.4 µM
8,COCC(=O)Nc1ccc(-c2noc([C@@H]3CCCN3Cc3cccc(C#N)c3)n2)cn1,"inconclusive: 126 µM [inhibitor, single point]"
9,CCOC(=O)[C@@H]1[C@@H](OC)C(=O)N(C)C12CCN(C(=O)OCC(C)C)CC2,inactive
10,COc1cc(NC(=O)Cn2c(N3CCOCC3)nc(C)cc2=O)cc(OC)c1OC,"inconclusive: 79.4 µM [inhibitor, single point]"
11,COc1ccc(C(=O)N2CCCN(c3cc(-c4ccccc4)[nH]n3)CC2)c(C)c1,"inconclusive: 31.6 µM [inhibitor, partial curve, poor fit]"
12,O=C1[C@@H]2C[C@@H](CN2Cc2ccccc2)Oc2ccccc2N1Cc1ccccc1,active: 63.1 µM
13,CCCNC(=O)N1CCCCCC1CN1CCOCC1 (centres undefined),inactive
14,CNC(=O)c1cc(C)nc2onc(C3CCN(C(=O)c4ccccc4)C3)c12 (centres undefined),inactive
15,O=C(Cc1ccc(Cl)cc1)N1CCN(c2cc(-c3cccs3)[nH]n2)CC1,"inconclusive: 44.7 µM [inhibitor, partial curve, poor fit]"
16,CCc1ccccc1NC(=O)CN(C)C(=O)C1CCN(c2cnn(Cc3ccccc3)c(=O)c2)C1 (centres undefined),"inconclusive: 79.4 µM [inhibitor, partial curve]"
17,COc1ccc(C(=O)Nc2ccc([C@H]3OCC(=O)N(Cc4ccc(F)cc4)[C@@H]3CO)cc2)cc1,"inconclusive: 79.4 µM [inhibitor, partial curve, poor fit]"
18,Cc1ccc2c(n1)N(C)[C@H](CO)CCN(Cc1ccccc1C)C2,active: 89.1 µM
19,c1ccc(-c2ccc(CN3CCCC3)cc2)c(CN2CCOCC2)c1,inactive
20,CCc1cccc(C)c1NC(=O)Cn1ccn2nc(-c3ccccc3)c(CO)c2c1=O,"inconclusive: 89.1 µM [inhibitor, single point]"
21,Cc1ccc(-c2cccc(CN3CCCC(NC(=O)C4CCCC4)C3)c2)cc1Cl (centres undefined),inactive
22,CC(c1ccc(-n2cncn2)cc1)n1ccnc1-c1cc2n(n1)CCNC2 (centres undefined),"inconclusive: 89.1 µM [inhibitor, single point]"

row,SMILES,Potency
1,Cc1ccc(NC(=O)C2CC(=O)N(c3n[nH]c4cccc(F)c34)C2)nc1 (centres undefined),inactive
2,Cc1ccc(-c2ccc3nnc(CNC(=O)c4ccc(Cl)cc4)n3n2)cc1,"inconclusive: 89.1 µM [inhibitor, single point]"
3,O=C(Nc1ccccc1Cl)c1ccc2nnc(-c3ccc(Cl)cc3)n2c1,"inconclusive: 79.4 µM [inhibitor, partial curve, poor fit]"
4,Cc1oc(C(O)c2ccccc2)nc1C(=O)NCc1ccco1 (centres undefined),"inconclusive: 126 µM [inhibitor, single point]"
5,NC(=O)[C@@H]1CN(C(=O)c2ccccc2)C[C@H]1COc1ccccc1,inactive
6,Fc1ccccc1-c1noc(N2CCCCC2)n1,"inconclusive: 35.5 µM [inhibitor, partial curve, poor fit]"
7,COc1cccc(C(=O)Nc2ccc(-c3ccc(OC)nn3)cc2)c1,"inconclusive: 50.1 µM [inhibitor, partial curve, poor fit]"
8,COc1ccc(CC(=O)NC[C@@H]2C=C(C)[C@H](Cc3nc4ccncc4[nH]3)C[C@H]2C(C)C)cc1,"inconclusive: 89.1 µM [inhibitor, single point]"
9,CCC[C@H]1CN(Cc2nc(C)no2)C[C@@H]1NC(=O)CCS(C)(=O)=O,inactive
10,CN1C(=O)C(c2ccccc2)CC12CCN(Cc1ccc(F)c(F)c1)CC2 (centres undefined),"inconclusive: 56.2 µM [inhibitor, partial curve, poor fit]"
11,COc1ccc(Nc2cnc3ccc(N4CCOCC4)nn23)cn1,"inconclusive: 126 µM [inhibitor, single point]"
12,O=C1N(C2CCN(Cc3ccccn3)CC2)C(c2ccncc2)C12CCCCC2 (centres undefined),inactive
13,O=C1Nc2ccccc2CC12CCN(Cc1ccc(OC(F)(F)F)cc1)CC2,"inconclusive: 100 µM [inhibitor, single point]"
14,O=C1[C@H]2CN(Cc3ccc(Cl)cc3)C[C@H]2C(=O)N1Cc1ccc2c(c1)OCO2,"inconclusive: 79.4 µM [inhibitor, partial curve, poor fit]"
15,Fc1ccc(F)c(CN2CCC(Oc3ccccc3-c3nc(C4CCOCC4)no3)C2)c1 (centres undefined),"inconclusive: 35.5 µM [inhibitor, full curve, poor fit]"
16,Cc1cc(=O)c(C(=O)N2CCCn3nc(CO)cc3C2)cn1C,"inconclusive: 10 µM [inhibitor, full curve]"
17,Cc1nc(C2CC2)ncc1C(=O)N1CC[C@](C)(O)[C@@H](O)C1,inactive
18,Cc1cc(Cl)ccc1-c1ccc(CN)cc1,active: 31.6 µM
19,COCCN1CC(CO)C2(CCN(C(=O)c3nccc4ccccc34)CC2)C1 (centres undefined),"inconclusive: 56.2 µM [inhibitor, partial curve, poor fit]"
20,CCCc1cc(N2CCC(NCc3c(F)cccc3Cl)CC2)nc(C)n1,"inconclusive: 44.7 µM [inhibitor, partial curve, poor fit]"
21,CN1CCOc2c(C(=O)NCCc3cnc[nH]3)cc(-c3cccnc3)cc21,"inconclusive: 79.4 µM [inhibitor, partial curve, poor fit]"
22,COc1ccc(Cl)cc1S(=O)(=O)N1CCCC(Cn2cnc3cccnc32)C1 (centres undefined),"inconclusive: 89.1 µM [inhibitor, partial curve, poor fit]"
